Measured values: publication PMC3967168
No constants are given. Whether binding was seen depends on the method and setting. Binding seen in cells or lysates may run through a third protein. Some entries that bind do so weakly or less than the wild type.

Chains of the proteins cited; added tags and fusions are not shown.
UniProt O60563: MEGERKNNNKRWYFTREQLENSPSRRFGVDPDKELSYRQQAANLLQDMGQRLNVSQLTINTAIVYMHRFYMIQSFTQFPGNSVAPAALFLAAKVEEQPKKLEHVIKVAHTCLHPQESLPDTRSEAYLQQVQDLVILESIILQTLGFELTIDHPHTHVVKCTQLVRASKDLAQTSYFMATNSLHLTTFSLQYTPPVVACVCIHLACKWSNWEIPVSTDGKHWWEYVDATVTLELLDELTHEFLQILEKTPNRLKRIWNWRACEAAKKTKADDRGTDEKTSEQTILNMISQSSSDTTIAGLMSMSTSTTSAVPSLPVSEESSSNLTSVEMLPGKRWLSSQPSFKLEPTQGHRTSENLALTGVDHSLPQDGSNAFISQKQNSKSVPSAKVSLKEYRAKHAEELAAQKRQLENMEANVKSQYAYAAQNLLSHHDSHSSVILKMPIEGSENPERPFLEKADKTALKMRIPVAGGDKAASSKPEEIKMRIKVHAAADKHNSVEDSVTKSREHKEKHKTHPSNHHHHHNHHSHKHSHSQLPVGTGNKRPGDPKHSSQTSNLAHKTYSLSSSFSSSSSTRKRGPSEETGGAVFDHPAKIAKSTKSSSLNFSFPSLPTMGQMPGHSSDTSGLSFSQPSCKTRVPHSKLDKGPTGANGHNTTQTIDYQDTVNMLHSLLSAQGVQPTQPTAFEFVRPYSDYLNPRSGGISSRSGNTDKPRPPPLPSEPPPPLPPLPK
UniProt P14635: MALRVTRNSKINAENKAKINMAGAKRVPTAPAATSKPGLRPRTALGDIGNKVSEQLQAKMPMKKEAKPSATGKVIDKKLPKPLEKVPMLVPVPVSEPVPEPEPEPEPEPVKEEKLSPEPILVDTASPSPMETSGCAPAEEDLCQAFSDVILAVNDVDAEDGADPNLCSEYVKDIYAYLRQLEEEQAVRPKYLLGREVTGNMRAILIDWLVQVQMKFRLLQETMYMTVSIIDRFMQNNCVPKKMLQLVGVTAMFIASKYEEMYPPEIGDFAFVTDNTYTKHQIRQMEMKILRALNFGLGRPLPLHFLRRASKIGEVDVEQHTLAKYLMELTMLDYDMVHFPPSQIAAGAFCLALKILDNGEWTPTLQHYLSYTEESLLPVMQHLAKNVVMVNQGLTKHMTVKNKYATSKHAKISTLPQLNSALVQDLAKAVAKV
UniProt P16749: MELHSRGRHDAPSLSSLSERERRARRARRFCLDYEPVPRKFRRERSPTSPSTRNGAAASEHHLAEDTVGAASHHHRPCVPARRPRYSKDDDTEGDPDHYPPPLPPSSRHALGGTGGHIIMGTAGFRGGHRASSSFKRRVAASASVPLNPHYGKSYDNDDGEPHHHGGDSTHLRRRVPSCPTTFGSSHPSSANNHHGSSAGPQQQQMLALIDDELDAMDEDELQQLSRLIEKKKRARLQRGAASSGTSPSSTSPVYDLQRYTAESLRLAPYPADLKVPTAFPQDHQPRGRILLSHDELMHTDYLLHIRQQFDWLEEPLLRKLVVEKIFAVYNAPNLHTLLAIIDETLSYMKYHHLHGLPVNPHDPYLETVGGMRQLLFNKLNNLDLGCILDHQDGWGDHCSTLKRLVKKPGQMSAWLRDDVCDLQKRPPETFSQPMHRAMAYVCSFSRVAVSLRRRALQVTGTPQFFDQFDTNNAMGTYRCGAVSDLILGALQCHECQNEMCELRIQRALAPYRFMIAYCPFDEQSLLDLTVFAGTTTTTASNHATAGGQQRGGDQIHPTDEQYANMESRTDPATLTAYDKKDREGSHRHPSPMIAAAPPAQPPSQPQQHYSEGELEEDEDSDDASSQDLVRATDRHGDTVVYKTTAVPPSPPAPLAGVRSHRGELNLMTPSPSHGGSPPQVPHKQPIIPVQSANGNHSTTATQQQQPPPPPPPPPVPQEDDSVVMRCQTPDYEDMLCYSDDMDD

Tests used:
Test in all cases: co-IP
[1] = biological target: cyclin T1 in HFFs (human (endogenous in HFF)) (UniProt O60563)
[2] = biological target: endogenous cyclin T1 (293T cells) (human (endogenous in 293T)) (UniProt O60563)
[3] = biological target: cyclin B1 (293T cells) (human (endogenous in 293T)) (UniProt P14635)
[4] = biological target: Flag-tagged pUL97 (full-length) (human cytomegalovirus (HCMV)) (UniProt P16788)
[5] = biological target: pUL97 in HCMV-infected HFFs (human cytomegalovirus (HCMV) strain AD169-GFP) (UniProt P16788)

pUL97 in HCMV-infected HFFs (from UniProt P16788 1-707) (enzyme)
binding [1]: binds

pUL97(1–230)-Flag (from UniProt P16788 1-230) (domain or fragment)
binding [2]: no binding

pUL97(74–707)-Flag (from UniProt P16788 74-707) (domain or fragment)
binding [3]: binds

pUL97(MX4)-Flag (from UniProt P16788 1-707) (enzyme)
binding [3]: binds

pUL97(K355M)-Flag (from UniProt P16788 1-707) (enzyme)
binding [3]: no binding

pUL97(1–280)-Flag (from UniProt P16788 1-280) (domain or fragment)
binding [2]: binds

Flag-tagged pUL97 (full-length) (from UniProt P16788 1-707) (enzyme)
binding [4]: binds

pUL97(157–707)-Flag (from UniProt P16788 157-707) (domain or fragment)
binding [3]: binds

pUL97(231–707)-Flag (from UniProt P16788 231-707) (domain or fragment)
binding [2]: binds

viral mRNA export factor pUL69 in HCMV-infected HFFs (from UniProt P16749 1-744)
binding [5]: binds
